According to PubChem BioAssay AID1508623 (National Center for Advancing Translational Sciences (NCATS), 2021):
Among all 48,000 compounds or so, about 450 (0.94%) were called active. Another 19% or so got no clear call; they are omitted. Calls come from the whole dose curve; as a rule, active = well fitted inhibition curve with a large enough effect; inconclusive = small, poorly fitted or top-dose-only effect; inactive = no such curve, though single readings can be large or run the other way. The list shows a part of the results.

Test: Primary qHTS for Identification of Small Molecule Inhibitors of Huntingtin Promoter Activity; note: nearly all actives have a fitted effect of over 50% in size
Details: HEK293 HTT promoter firefly luciferase reporter (activity 0% = vehicle and -100% = no light), 24 h; series mostly up to 57.5 µM; activity change, negative = inhibition: at the top concentration
Outline: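 HEK293 luciferase promoter-reporter cells (2,500/well) plated 24 h, then compounds added at up to 57.5 uM final for 24 h at 37 °C. Firefly luminescence by Dual-Glo, normalized to vehicle (0%) and zero RLU (-100%).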

Activity change, negative = inhibition, inactive:
CCOc1ccc(NC(=O)c2cc(=O)c3cc(CC)ccc3o2)cc1 7.73% [at 11.5 µM], Cc1cccc(NC(=O)CSc2nc(=O)n(Cc3ccncc3)c3c2CCC3)c1C 0%, Cc1ccc(-c2noc(-c3ccccc3NC(=O)C3CC(=O)N(c4cccc(C)c4)C3)n2)cc1 (stereo not given) 21.8%, Oc1ccc(/C=C/c2nc(-c3ccccc3O)n(-c3ccccc3)n2)c(O)c1 -27.6%, COc1ccc(CCNC(=O)c2ccc3c(c2)sc2nc(-c4ccc(C)cc4)cn23)cc1OC 0.069%, CCc1ccccc1NC(=O)Cn1nnc(-c2nc(-c3ccncc3)no2)c1N -0.531%, COc1cc(NS(=O)(=O)c2ccc3c(c2)CC(=O)N3)cc(OC)c1OC -28.6%, Cc1ccc(NC(=O)C2CCN(S(=O)(=O)c3ccc4c(c3)CCCC(=O)N4)CC2)c(Cl)c1 -35.3%, O=C(NCc1ccccc1Cl)c1ccc2c(c1)nnn2C1CCCC1 37.9%, O=C(NC1(C(F)(F)F)C(=O)Nc2c1c(=O)[nH]c(=O)n2CCc1ccccc1)c1ccc(Cl)cc1 (stereo not given) -13.7%, CCCCC(=O)Nc1ccc2nc(SCC(=O)N3CCOCC3)sc2c1 -12.9%, CCOc1ccc(NC(=O)CN2CCN(CC(=O)Nc3ccc(N(CC)CC)cc3)CC2)cc1 -21.6%, COc1cc(NS(=O)(=O)c2ccc3[nH]c(=O)[nH]c3c2)cc(OC)c1 -11.5%, Cc1ccc(NC(=O)c2c(C)oc3ncn(C)c(=O)c23)cc1F -18.1%, O=C(CCCc1ccccc1)NC1CC(=O)N(c2ccc(Cl)cc2)C1 (stereo not given) -3.54%, Cc1ccc(OCC(=O)Nc2nnc(SCc3cc(=O)c4ccccc4[nH]3)s2)cc1C 6.92%, COc1ccccc1C(=O)n1nc(-c2cccnc2)nc1NCc1ccccc1 -13.2%, Cc1cccc(-c2nc3c4ccccc4nc(N4CCN(c5ccc(F)cc5)CC4)n3n2)c1 -8.89%, COc1ccc(NC(=O)c2coc(=O)c3ccccc23)cc1OC 50.3% [at 11.5 µM], O=C(CCn1c(=O)c2sccc2n(Cc2ccccc2F)c1=O)NCc1ccc2c(c1)OCO2 -3.93%, CCOc1ccc(-n2cc(-c3ccccc3)c3c(NCCc4ccccc4)ncnc32)cc1 -30%, Cc1cccc(NC(=O)Cn2nc(-c3ccccc3)c3cnc4ccccc4c32)c1 -32%, CCc1cccc(NC(=O)CCn2c(=O)c3cccn3c3cccnc32)c1 -1.27%, CCOC(=O)N1CCc2c(sc3c2c(=O)n(Cc2ccccc2)c(=O)n3CC(=O)Nc2cccc(CC)c2)C1 -12%, O=C(CCNS(=O)(=O)c1ccc2c(c1)CCCC(=O)N2)Nc1cccc(Cl)c1 -7.7%, O=C(NCCc1ccccc1)c1ccc(CS(=O)Cc2ccc(Cl)cc2)o1 (stereo not given) -1.19%, COc1ccc(C(=O)c2c(N)c(-c3nc(-c4ccc5c(c4)OCO5)cs3)c3ccccn23)cc1 -0.301%, COC(=O)Cn1c(C2CC(=O)N(c3c(C)cccc3C)C2)nc2ccccc21 (stereo not given) -6.77%, O=C(Nc1ccc(F)cc1F)C1CCN(c2ncccn2)CC1 -5.71%, O=S(=O)(c1ccc(C2CCCCC2)cc1)N1CCN(c2ccc(Cl)c(Cl)c2)CC1 -9.63%, Cc1ccccc1NC(=O)Cn1cc(C(=O)c2ccco2)c2ccccc21 -23.9%, Cc1ccc(C)c(N2CCN(c3ncnc4c3nc3n4CCCC3)CC2)c1 -14.5%, Cc1cccc(Cn2cc(S(=O)(=O)c3cccc(Cl)c3)c(=O)c3cc(F)c(N4CCOCC4)cc32)c1 -5.35%, O=C1c2ccccc2C(=O)C1c1ccc(Br)cc1 10.8%, CCOC(=O)c1c(C)[nH]c(C)c1S(=O)(=O)N(C)CC(=O)Nc1ccc(OC)cc1 -11.2%, Cn1c(=O)c2nc(SCC(=O)Nc3ccc(OC(F)(F)F)cc3)n(C)c2n(C)c1=O -1.19%, COc1cc(C(CC(=O)Nc2ccc(C)c(F)c2)N2Cc3ccccc3C2=O)cc(OC)c1OC (stereo not given) 1.11%, COc1ccc(-c2nc(CNC(=O)NC3CCCCC3)c(C)o2)cc1 0%, CCN(CC)c1ncnc2c1cnn2-c1cc(Cl)ccc1C -15.7%, O=C1OCC2=C1C(c1cccc(Cl)c1)CC(=O)N2c1ccc(C(F)(F)F)cc1 (stereo not given) -16.2%, CCOc1ccccc1NC(=O)C1CCN(S(=O)(=O)c2c(C)noc2/C=C/c2ccco2)CC1 -16%, COc1ccc(OC)c(CNC(=O)c2ccc(N3Cc4ccccc4Oc4ncccc43)s2)c1 -27.1%, O=C(CCn1c(=O)c2ccccc2n(CC(=O)Nc2cccc(F)c2)c1=O)NCCc1ccccc1 -8.55%, CCn1c(-c2nonc2N)nc2c(C#CC(C)(C)O)ncc(OC[C@H]3CCCNC3)c21 -19.5%, Cc1noc(-c2ccc(-c3noc(-c4ccc(F)cc4)n3)cc2)n1 -12.6% [at 11.5 µM], CCOC(=O)c1cccc(NC(=O)CCSCCc2ccccn2)c1 -11.2%, Cc1ccc(NC(=O)Cn2nc(-c3ccccc3)nc(Cc3ccc(Cl)cc3)c2=O)cc1 -15.4%, COc1cc(C2Nc3ccccc3-c3cc(C)nn32)ccc1O (stereo not given) -12.1%, COCCn1c(SCC(=O)Nc2cc(Cl)ccc2OC)nc2c([nH]c3ccccc32)c1=O -18.5%, COc1ccc(CNC(=O)CCNS(=O)(=O)c2ccc3c(c2)oc(=O)n3C)cc1 -9.45%, CC1(C)O[C@H]2C[C@@H]3[C@H]4CCC5=CC(=O)C=C[C@]5(C)[C@@]4(F)[C@@H](O)C[C@]3(C)[C@]2(C(=O)CO)O1 -6.83%, Cc1ccccc1C(=O)Nc1cc(C)c(O)c(-c2nc3ccccc3o2)c1 -10.3%, Cc1cc2c(s1)Nc1ccccc1N=C2N1CCN(C)CC1, CC1CCN(CC2CCN(C(=O)NCc3ccccc3)CC2)CC1 -16.8%, CCCCCCn1nnc2sc(-c3ccccc3)cc2c1=O 16.6%, CCC1CN(C(=O)Nc2ccccc2F)c2cc(C)ccc2O1 (stereo not given) 0.439%, CCOc1ccc(-c2nc(Cn3c(=O)cc(C)c4c(C)nn(-c5ccccc5)c43)c(C)o2)cc1 1.01%, COc1ccc(C2CC(=O)c3cc(-c4nc(-c5cccc([N+](=O)[O-])c5)cs4)c(=O)n(-c4ccccc4)c3C2)cc1 (stereo not given) -4.82%, CCn1cc(C(=O)N(C)Cc2ccccc2)c(=O)c2cc(S(=O)(=O)N3CCc4ccccc4C3)ccc21 -0.452%, CCc1ccc(NC(=O)CSc2ccnc(=O)[nH]2)cc1 18.5%
